Screen size: about 360,000 compounds; about 740 (0.21%) were called active. The shares of active, inactive and inconclusive entries below differ from those in the screen. Calls come from the whole dose curve; as a rule, active = well fitted inhibition curve with a large enough effect; inconclusive = small, poorly fitted or top-dose-only effect; inactive = no such curve, though single readings can be large or run the other way. No potency is given beside an inconclusive call; the fits are too rough.
System: Plasmodium falciparum AMA1 (3D7) - RON2 peptide interaction
Assay: qHTS for Inhibitors of AMA1-RON; Towards Development of Antimalarial Drug Lead: Primary Screen; note: nearly all actives have a fitted effect of over 45% in size;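 for activity change, negative = inhibition: 0% = vehicle wells and -100% = peptide control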
Conditions: AlphaScreen AMA1-biotinylated RON2 peptide binding; activity change, negative = inhibition: at 58.2 µM (top of the series) unless noted
How it was run: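 AMA1 (3D7) with his tag at 25 nM final met compounds first, then biotinylated RON2 peptide at 25 nM; detection used donor plus acceptor beads, 10 µg/mL apiece, read by AlphaScreen after 30 min at room temperature.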
Potency is the fitted concentration of half-maximal effect; tags give direction and shape of the fitted curve.

Structure (SMILES)	Potency	activity change, negative = inhibition
CCN(C(=O)Cn1nc(C)c([N+](=O)[O-])c1C)c1c(N)n(Cc2ccccc2)c(=O)[nH]c1=O	inactive	–
CCN(CC)P(=O)(Nc1cccc(C(F)(F)F)c1)c1ccc(N(C)C)cc1NC(=O)c1ccco1 (centres undefined)	inconclusive [inhibitor, partial curve]	–
CSc1ccc(C(=S)N2CCN(C(c3ccccc3)c3ccccc3)CC2)cc1	inconclusive [inhibitor, partial curve, poor fit]	–
CCOC(=O)/C(=N\Nc1ccccc1[N+](=O)[O-])c1csc(Nc2ccccc2)n1	inconclusive [inhibitor, partial curve]	–
CCN(CC)c1ccc(NC(=O)CSc2nc(C3CC3)nc3ccccc23)cc1C	inconclusive [inhibitor, partial curve]	–
CC(CCc1ccccc1)NC(=O)c1ccc(NC(=O)c2cccc(Br)c2)cc1 (centres undefined)	inactive	–
COC(=O)c1cccc(Oc2cccc(Cl)n2)c1	inactive	–
CCOCCCNC(=S)N1C2CCC1CC(NC(=O)NC1CCCCC1)C2 (centres undefined)	inactive	–
CCOc1ccc(OCCCC(=O)N2CCN(S(=O)(=O)c3ccc(Cl)cc3)CC2)cc1	inconclusive [inhibitor, single point]	–
COc1ccc(OCC2CCCN(Cc3nc(CC4CC4)no3)C2)cc1 (centres undefined)	inconclusive [inhibitor, single point]	–
CC(=O)c1ccc(N/N=C(/C(N)=O)C2=NC(C)(C)Cc3ccccc32)cc1	inconclusive [inhibitor, single point]	–
CNC(=O)NC1CCCc2ccccc21 (centres undefined)	inconclusive [inhibitor, single point]	–
COc1ccccc1N=NNc1ccccc1OC	inconclusive [inhibitor, partial curve]	–
COC(=O)CCc1sc(Nc2ccccc2)nc1-c1ccc(OC)cc1	inconclusive [inhibitor, partial curve, poor fit]	–
COc1ccccc1CNC(=O)COC(=O)[C@H](Cc1c[nH]c2ccccc12)NC(=O)c1cccs1	inconclusive [inhibitor, partial curve, poor fit]	–
C=CCn1c(SC(F)F)nc2scc(-c3ccco3)c2c1=O	inactive	–
CCN(CC)c1ccc(N=Cc2ccc([N+](=O)[O-])o2)cc1	inconclusive [inhibitor, single point]	–
S=C(c1ccc(-c2ccccc2)o1)N1CCCCC1	inconclusive [inhibitor, single point]	–
COc1cc(NC(=O)c2ccccc2)c(OC)cc1NC(=O)CN1CCCCC1	inconclusive [inhibitor, partial curve]	–
CC(=O)c1ccc(NC(=O)C2=CC(c3ccc4c(c3)OCO4)=NS(=O)(=O)N2C)cc1	inactive	–
Clc1ccc(N2CCN(c3ncnc4c3oc3ccccc34)CC2)cc1	inactive	–
O=C(O)c1ccccc1C(=O)Nc1ccc(Oc2cccc3ccccc23)cc1	inconclusive [inhibitor, partial curve]	–
CC(C)NC(=O)c1ccc(-c2cccc(C(F)(F)F)c2)o1	inactive	–
O=S(=O)(c1ccccc1)N1CCN(Cc2ccccc2)c2ccccc21	inconclusive [inhibitor, partial curve]	–
COc1ccc(NC(=O)Nc2cccnc2)c(OC)c1	inactive	–

Structure (SMILES)	Potency	activity change, negative = inhibition
COc1ccccc1C(=O)NCCCNC(=O)c1cccnc1	inactive	–
Cn1c(=O)[nH]c(=O)c2c1nc(N/N=C/c1cccnc1)n2Cc1ccc(Cl)cc1	inactive	–
Cc1cccc(N2CCN(Cc3cnc(Cl)s3)CC2C)c1 (centres undefined)	inconclusive [inhibitor, single point]	–
COc1ccc(OCCNc2cc(N3CCCCC3)ccc2[N+](=O)[O-])cc1	inconclusive [inhibitor, partial curve]	–
CCOC(=O)c1ccc(/[N+]([O-])=C/c2ccccc2)cc1	inconclusive [inhibitor, partial curve]	–
CCOC(=O)[C@]12CCCC=C1N(Cc1ccccc1)C(=O)[C@H](CC(=O)NCC1CCCCC1)C2	inactive	–
Cc1cnc(NC(=O)Cc2ccc(S(=O)(=O)N3CCOCC3)s2)s1	inactive	–
COc1ccc(/C=C2\SC(=S)N(CC3CCCO3)C2=O)cc1 (centres undefined)	inconclusive [inhibitor, partial curve]	–
COC(=O)c1oc2ccccc2c1-n1cccc1	inconclusive [inhibitor, single point]	–
CCOC(=O)C1=C(O)c2ccccc2C(=O)/C1=C\c1ccc(CC)cc1	inconclusive [inhibitor, partial curve]	–
NC(=O)N/N=C/c1ccccc1OC(=O)c1cc2ccccc2oc1=O	inactive	–
COc1ccc(N2CCN(Cc3nc(-c4ccc(Cl)cc4Cl)no3)CC2)cc1	inconclusive [inhibitor, partial curve]	–
CC(=O)Nc1cccc(NC(=S)Nc2cccc3ccccc23)c1	inactive	–
O=C(CN1CCN(c2ccccn2)CC1)NC1CCCC1	inconclusive [inhibitor, full curve, poor fit]	–
Cc1nn(C)cc1C(N)=O	inactive	–
O=C1Nc2ccc(Br)cc2/C1=C/C(=O)c1ccc2c(c1)OCO2	inconclusive [inhibitor, single point]	–
CCCC(=O)NC(C)c1nc2ccccc2[nH]1 (centres undefined)	inactive	–
CCOC(=O)c1ccc(-n2c(=S)sc3c(=O)[nH]c(C)nc32)cc1	inconclusive [inhibitor, single point]	–
O=C(CNCC1CCCO1)Nc1ccc(N2CCCCCC2)cc1 (centres undefined)	inconclusive [inhibitor, single point]	–
O=C(CSc1ncccn1)NCc1cccs1	inactive	–
Cc1cc(C)c(S(=O)(=O)Cc2ccc(Cl)cc2)c(=O)[nH]1	inactive	–
CCOc1ccccc1CNCC1CCCO1 (centres undefined)	inactive	–
Cc1ccc(-n2c(C)cc(/C=C(\C#N)C(=O)NCC3CCCO3)c2C)cc1 (centres undefined)	inconclusive [inhibitor, single point]	–
CCc1ccc(N2C(=O)CC(N3CCC(C(=O)OC)CC3)C2=O)cc1 (centres undefined)	inactive	–
CC(C)n1c(SCC(=O)NC2CC2)nnc1-c1ccco1	inactive	–

Structure (SMILES)	Potency	activity change, negative = inhibition
CCN(CC)c1ccc(NC(=S)Nc2ccc(F)cc2)cc1	active: 31.6 µM	–
O=C(NCc1ccncc1)C(=O)N/N=C/c1ccc(OCc2ccccc2)cc1	inconclusive [inhibitor, full curve, poor fit]	–
Cc1ccc2c(c1)c1c3n2CCN(CCC(=O)O)C3CCC1 (centres undefined)	inactive	–
CN1CCN(CC(=O)N2CCn3c4c(c5cc(C6CCCCC6)ccc53)CCCC42)CC1 (centres undefined)	inconclusive [inhibitor, partial curve]	–
CN(C)c1ccc(NC(=O)/C=C/c2c(Cl)cccc2Cl)cc1	inconclusive [inhibitor, partial curve]	–
CC1=NN(c2ccccc2)C(=O)C1N=Nc1ccc(N)cc1 (centres undefined)	inconclusive [inhibitor, single point]	–
O=C(NC1CCCC1)c1cccc(Oc2ccccc2)c1	inconclusive [inhibitor, full curve, poor fit]	–
COc1ccc(-c2csc(=NCCO)n2-c2ccccc2)cc1	inconclusive [inhibitor, partial curve]	–
Cc1cc(NS(=O)(=O)c2ccc(NC(=O)COc3ccc(Cl)c(C)c3)cc2)no1	inactive	–
CNc1ccccc1-n1ccc(-c2ccccc2)n1	–	inconclusive: -43% [inhibitor]
CN1CCN(Cc2c(O)ccc3occ(C(=O)c4ccccc4)c23)CC1	inactive	–
CC(=O)NCc1ccc(S(=O)(=O)N2CCN(S(=O)(=O)c3ccc4ccccc4c3)CC2)cc1	inactive	–
Cc1nnc(SCC(=O)NNC(=O)c2ccccc2)n1-c1ccccc1	inconclusive [inhibitor, single point]	–
O=[N+]([O-])c1ccc(CN2CCN(c3ccccc3Cl)CC2)o1	inconclusive [inhibitor, partial curve]	–
Cc1ccc2sc(N(CCCN(C)C)C(=O)c3ccc(S(=O)(=O)N4CCc5ccccc5C4)cc3)nc2c1C	inconclusive [inhibitor, partial curve]	–
Oc1cccc(CN2CCOCC2)c1O	inconclusive [inhibitor, partial curve]	–
CN(C)c1ccc(NC(=S)c2ccccn2)cc1	active: 14.1 µM	–
Cc1ccc(SCc2cc(=O)n(C)[nH]2)cc1	inactive	–
CC(=O)NN1C(=O)/C(=C/c2ccc(Br)o2)SC1=S	active: 31.6 µM	–
COc1cc2nc(C3CCC3)nc(N3CCN(c4ccccc4OC)CC3)c2cc1OC	inconclusive [inhibitor, partial curve]	–
CCOC(=O)C1(Cc2ccccc2)CCN(Cc2ccc(C3CCCCO3)s2)CC1 (centres undefined)	inconclusive [inhibitor, partial curve]	–
O=C(Nc1ccccc1)c1ccc(S(=O)(=O)Nc2cccc(O)c2)cc1	inconclusive [inhibitor, partial curve]	–
COc1cc(/C=N/N2CCN(Cc3ccc(Cl)cc3)CC2)ccc1OC(C)=O	inconclusive [inhibitor, single point]	–
COc1ccc(OC)c(CN2CCC(C(=O)N3CCN(c4ccccc4F)CC3)CC2)c1	inconclusive [inhibitor, partial curve]	–

From PubChem BioAssay AID720542 (National Center for Advancing Translational Sciences (NCATS), 2013)
